# From PMC4336329 (PLoS ONE, 2015)
# Out of some 310,000 compounds screened, about 2,200 (0.71%) showed an effect of 50% or more. Effects have a minus sign here. This is one part of the list.
# Target: human ether-à-go-go-related gene (hERG) potassium channel (human, UniProt Q12809)
# Experiment: primary screen, population patch clamp on CHO cells stably expressing hERG
# Sequence of human ether-à-go-go-related gene (hERG) potassium channel (Q12809 whole entry, looked up): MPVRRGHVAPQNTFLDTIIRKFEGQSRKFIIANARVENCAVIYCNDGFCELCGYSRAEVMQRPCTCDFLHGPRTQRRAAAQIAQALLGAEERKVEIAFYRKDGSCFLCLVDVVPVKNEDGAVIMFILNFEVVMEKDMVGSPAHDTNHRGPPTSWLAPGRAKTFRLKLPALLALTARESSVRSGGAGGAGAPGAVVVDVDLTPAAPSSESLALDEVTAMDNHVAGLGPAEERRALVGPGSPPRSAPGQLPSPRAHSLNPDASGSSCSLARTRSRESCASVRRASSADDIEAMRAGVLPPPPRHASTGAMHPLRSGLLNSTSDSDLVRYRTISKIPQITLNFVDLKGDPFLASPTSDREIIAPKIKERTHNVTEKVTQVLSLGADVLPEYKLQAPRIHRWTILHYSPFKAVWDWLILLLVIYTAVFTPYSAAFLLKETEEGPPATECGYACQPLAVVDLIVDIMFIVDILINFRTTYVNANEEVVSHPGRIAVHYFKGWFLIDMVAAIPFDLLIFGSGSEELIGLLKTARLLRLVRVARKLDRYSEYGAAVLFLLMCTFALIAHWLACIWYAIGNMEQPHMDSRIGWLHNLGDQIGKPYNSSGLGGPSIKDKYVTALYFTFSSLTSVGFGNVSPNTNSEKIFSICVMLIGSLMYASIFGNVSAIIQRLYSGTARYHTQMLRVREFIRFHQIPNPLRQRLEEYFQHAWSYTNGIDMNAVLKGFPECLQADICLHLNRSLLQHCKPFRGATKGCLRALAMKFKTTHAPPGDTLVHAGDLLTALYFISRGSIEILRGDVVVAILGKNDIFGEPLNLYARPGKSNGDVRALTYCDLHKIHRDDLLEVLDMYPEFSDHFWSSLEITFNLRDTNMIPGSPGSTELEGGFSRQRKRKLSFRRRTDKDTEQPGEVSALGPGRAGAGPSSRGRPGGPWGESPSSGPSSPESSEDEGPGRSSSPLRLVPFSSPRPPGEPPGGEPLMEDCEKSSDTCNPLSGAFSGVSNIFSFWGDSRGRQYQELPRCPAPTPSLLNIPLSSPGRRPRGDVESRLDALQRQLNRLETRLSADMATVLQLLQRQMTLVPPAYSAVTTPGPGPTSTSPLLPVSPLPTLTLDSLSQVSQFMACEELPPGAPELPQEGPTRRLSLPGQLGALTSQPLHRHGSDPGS
row,Compound,"hERG current change (%, negative = inhibition) at 1uM [%]"
1,CN1OC(CC(=O)O)N(c2ccc(Cl)cc2)C1=O (stereo not shown),16.4
2,COc1ccc(OC)c(C2CC(=O)c3c([nH]c(C(=O)OC(C)C)c3C)C2)c1 (stereo not shown),4.74
3,Cc1ccc(-c2nnn(CC(=O)N(Cc3ccco3)C(C(=O)NC3CCCC3)c3cccs3)n2)o1 (stereo not shown),15.2
4,Cc1cc2oc(C(=O)N3CCN(Cc4ccccc4)CC3)c(C)c2cc1C,7.53
5,CC(C)Oc1ccc(CNCC2(O)CCOC(C)(C)C2)cc1 (stereo not shown),11.2
6,CCOc1ccc(N2CC(C(=O)Nc3ccc(F)cc3F)CC2=O)cc1 (stereo not shown),8.2
7,CCc1ccc(CN(C)Cc2nc(Cc3cccc(C(F)(F)F)c3)no2)nc1,10.3
8,Cc1cccc(C)c1OCC(=O)Nc1ccc(NC(=O)c2ccco2)cc1,9.92
9,Cc1cccc(-n2c(SCC(N)=O)nnc2-c2ccco2)c1,4.74
10,Cc1ccccc1N=CC1=C(O)c2ccccc2C1=O,6.54
11,N#CCCN(Cc1cccnc1)C(=S)Nc1ccc(OC(F)F)cc1,-30.8
12,O=c1cc(CN2CCN(c3ccc(F)cc3)CC2)c2cc3c(cc2o1)CCCC3,13.5
13,O=C(COc1cccc(NC(=O)c2cccs2)c1)c1ccc(F)cc1,5.77
14,O=C(CSc1ncnc2c1cnn2-c1ccccc1)NCC1CCCO1 (stereo not shown),0.396
15,N#CCc1nc2n(n1)Cc1ccccc1-2,-0.58
16,O=C(c1cc2cc(Cl)ccc2[nH]1)N1CCc2ccccc2C1,16.9
17,O=C(CSc1nnc(-c2ccncc2)n1CCc1ccccc1)N1CCCC1,14.1
18,CN(C)S(=O)(=O)N(CC(=O)Nc1ccc(S(=O)(=O)N2CCCC2)cc1)c1ccccc1,-12.6
19,c1ccc(-c2nnc(C3CC(c4cccnc4)=NO3)o2)cc1 (stereo not shown),11.1
20,COc1ccccc1-c1nnc(SCC(=O)Nc2ccccc2)o1,2.87
21,CCCCCCCCc1nc(SC(C)C(=O)O)n[nH]1 (stereo not shown),7.12
22,O=C(Nc1cccc(Br)c1)c1ccc(CN2CCc3ccccc3C2)cc1,6.53

row,Compound,"hERG current change (%, negative = inhibition) at 1uM [%]"
1,COC(=O)c1cc(-c2ccc(OC)cc2)nc2nc(SC)[nH]c(=O)c12,11.5
2,CCCCOC(=O)c1ccc(NC(=O)C(=O)NCc2ccccn2)cc1,13.5
3,O=C(CCNC(=O)c1ccccc1Cl)NCc1ccncc1,9.03
4,O=C(Nc1ccccc1F)Nc1ccccc1N1CCCCC1,10.4
5,Cc1cc(C(=O)NNC(=O)c2ccc(C(F)(F)F)cc2)no1,17.7
6,O=c1oc2ccccc2c(O)c1Cc1cc(Cl)c2cccnc2c1O,14.7
7,O=C(NCc1ccccc1)C1C2C=CC3(CN(Cc4cccnc4)C(=O)C13)O2 (stereo not shown),12.6
8,O=Cc1ccc2noc(-c3ccc(Cl)cc3)c2c1,1.55
9,COc1ccccc1N1CCN(C(=O)Cc2cccs2)CC1,-1.14
10,COCCn1c(-c2ccc(OC)cc2)nc2oc3cc(OC)ccc3c(=O)c2c1=O,-10.3
11,Cc1noc(C)c1COc1ccc(CC(=O)NC2CCCCCC2)cc1,17.8
12,CC(O)(CS(=O)(=O)Cc1ccccc1)c1ccc(Cl)cc1 (stereo not shown),9.03
13,Cc1ccccc1-c1cccc([C@@H]2C[C@H]3CN(Cc4cccnc4)C(=O)[C@]34CCCN24)c1,-15.9
14,Cc1cc(=O)oc2cc(OCC(=O)NC3CCN(Cc4ccccc4)CC3)ccc12,14.5
15,O=C1CN(O)C(c2ccccc2)=c2cc(Br)ccc2=N1,15.1
16,CCOC(=O)c1c(O)c2c([nH]c1=O)CCCC2,11.3
17,CS(=O)(=O)C1=NSC2=NC(=O)/C(=C\c3cccn3-c3ccccc3Cl)C(=N)N21,22.2
18,O=C(O)c1ccc(NC(=O)c2ccc(Cl)cc2)c(NC(=O)c2ccc(Cl)cc2)c1,18.1
19,COc1ccc(OC)c(NC(=O)CN(c2ccc(C)cc2)S(=O)(=O)c2c(C)noc2C)c1,14.2
20,O=C(NCCc1cn[nH]c1)C1CCC(=O)N(CCc2cccc(F)c2)C1 (stereo not shown),15.5
21,O=C(CSc1ccc(Cl)cc1)N1N=CCC1c1ccccc1 (stereo not shown),5.22
22,CC(=O)NCCc1c[nH]c2ccc(OCC(O)CNC(C)(C)C)cc12.O=C(O)c1ccccc1 (stereo not shown),16.7

row,Compound,"hERG current change (%, negative = inhibition) at 1uM [%]"
1,COc1ccc2c(c1)CCC/C2=N\Nc1nc(C(=O)NN)cs1,5.95
2,COc1cc(OC)cc(C(=O)Nc2nc3ccc(S(C)(=O)=O)cc3s2)c1,10.8
3,COc1cccc(CNc2nc3ccccc3n2CCN2CCCCC2)c1OC,-15.1
4,CN(CCOc1ccc(Br)cc1)CC(=O)Nc1cccc(S(=O)(=O)NC2=NCCC2)c1,16.5
5,O=C(Nc1ccc(Nc2ccncc2)cc1)c1ccc([N+](=O)[O-])cc1,-34.7
6,Cn1c(N)c(C(=O)COC(=O)COc2ccc(Cl)cc2)c(=O)n(C)c1=O,2.63
7,COc1ccc(NC(=O)COc2ccc3oc(=O)cc(C)c3c2)cc1,5.33
8,CC(C)C(C)NC(=O)COc1nc2ccccc2nc1N(C)C1CCCCC1 (stereo not shown),19.5
9,CSc1ccc(N=Nc2c(C)[nH]n(C)c2=O)cc1,6.21
10,CCc1ccc(CC2S/C(=C(\C#N)C(C)=O)NC2=O)cc1 (stereo not shown),8.45
11,C=CCn1c(CSc2nc3ccccc3s2)nnc1SCC(=O)NCc1ccco1,4.51
12,CCN(CC)c1ccc(NC(=O)c2ccc3c(c2)c(C)c(C)n3C)cc1,0.0326
13,CCN(CC)CCCN(Cc1cc2cc3c(cc2[nH]c1=O)OCO3)C(=S)NCCCOC,-1.26
14,COC(=O)c1ccc(C(=O)Nc2nc3cc(N)c(C)cc3s2)cc1,10.3
15,COc1cc(NC(=O)C2CCC(CNS(=O)(=O)c3csc(C(N)=O)c3)CC2)cc(OC)c1 (stereo not shown),16.2
16,N#Cc1c(NC(=O)c2ccncc2)sc2c1CCC2,5.7
17,CSc1cccc(NC(=O)c2cc(S(=O)(=O)N3CCCCC3)c[nH]2)c1,13.6
18,COc1ccc(C2Nc3ccccc3C(=O)N2c2ccc(F)cc2)cc1Cn1nnc2ccccc21 (stereo not shown),5.99
19,Cc1ccc(/C=N/NC(=O)CNC(=O)c2cccs2)o1,22
20,CCOc1cc2c(cc1OCC)CN(C(=O)c1cccc(S(=O)(=O)N3CCCC3)c1)CC2,13.1
21,Cn1c(SCC(=O)NC2CC2)nnc1C1CC1,-0.518
22,CC(C)NC(=O)c1c(CSc2ccc(Cl)cc2)noc1C(=O)NCc1ccccc1,-2.81

row,Compound,"hERG current change (%, negative = inhibition) at 1uM [%]"
1,CC(C)CN1CCN(Cc2cc(F)ccc2-n2cccn2)CC1CCO (stereo not shown),3.57
2,COc1cc(C(=O)NCCC(=O)NC2CCCCC2)cc(OC)c1OC,14.9
3,Cc1cccn2cc(CCNS(=O)(=O)c3cccc([N+](=O)[O-])c3)nc12,7.97
4,O=C(CSc1ccc(Br)cc1)N1CCN(C(=O)c2ccco2)CC1,-34.2
5,Cc1ccc2[nH]c(C)c(CCNCc3cccnc3)c2c1.Cl,14.7
6,S=C(Nc1ccc(OCc2ccccc2)cc1)Nc1cccc(Cl)c1Cl,6.91
7,O=c1[nH]c(/C=C/c2ccc(OC(F)F)cc2)nc2c1cnn2-c1ccccc1,27.5
8,COc1ccc(OC)c(C(c2nnnn2C2CCCC2)N2CCN(c3ccc(F)cc3)CC2)c1 (stereo not shown),-13.6
9,Cc1ccc2c(c1)C(O)(C1COC(C)(C)CC1=O)C(=O)N2C (stereo not shown),3.32
10,COC(=O)COc1ccc(/C=N/NC(=O)CN(c2ccccc2OC)S(=O)(=O)c2ccccc2)cc1,12.1
11,O=C1CCN(C(=O)CNC(=O)Cc2ccccc2)CC1,8.64
12,O=C(OCC(=O)N1CCCCC1)c1c[nH]c2ccccc12,-0.139
13,Cc1ccc(N(Cc2ccccc2)C(=O)c2cccc(S(=O)(=O)N3CCOCC3)c2)cc1,-15.3
14,COc1cc2c(cc1NC(=O)c1cncc(Br)c1)oc1ccccc12,9.75
15,CSc1cccc(NC(=O)COc2cccc3ccccc23)c1,15.8
16,O=C(Nc1ccccc1)Nc1cccc(C(F)(F)F)c1,16.6
17,Clc1ccc(-c2nc3ccc(Cl)cn3c2CN2CCCCC2)cc1,14.2
18,CC(C)(C)C(=O)Nc1cc(NC(=O)C(C)(C)C)cc(C(=O)Nc2c[nH]c(=O)[nH]c2=O)c1,6.12
19,CC1=NC(C(F)(F)F)(C(F)(F)F)C(C#N)=C(C)N1,7.7
20,CCCCc1sc(-c2c(C#N)c(N)nc3c2CCCCC3)cc1[N+](=O)[O-],0.421
21,O=C(/C=C/c1cccc([N+](=O)[O-])c1)N1CC[C@@]2(O)CCCC[C@H]2C1,-2.42
22,CCOC(=O)NNC(=O)NCCCCCCNC(=O)NNC(=O)OCC,14.8
